Measured values taken from publication PMC4336329 (PLoS ONE, 2015).
In all, about 310,000 compounds went through this assay and about 14,000 (4.5%) showed an effect of 50% or more. The effect is printed as a negative number. The list shows a part of the results.

The molecules below were run against human ether-à-go-go-related gene (hERG) potassium channel (human, UniProt Q12809) (assay: primary screen, population patch clamp on CHO cells stably expressing hERG).
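Further: peak tail current of the secondary pulse compared with the same well before compound.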

Chain of human ether-à-go-go-related gene (hERG) potassium channel (Q12809 whole entry, looked up): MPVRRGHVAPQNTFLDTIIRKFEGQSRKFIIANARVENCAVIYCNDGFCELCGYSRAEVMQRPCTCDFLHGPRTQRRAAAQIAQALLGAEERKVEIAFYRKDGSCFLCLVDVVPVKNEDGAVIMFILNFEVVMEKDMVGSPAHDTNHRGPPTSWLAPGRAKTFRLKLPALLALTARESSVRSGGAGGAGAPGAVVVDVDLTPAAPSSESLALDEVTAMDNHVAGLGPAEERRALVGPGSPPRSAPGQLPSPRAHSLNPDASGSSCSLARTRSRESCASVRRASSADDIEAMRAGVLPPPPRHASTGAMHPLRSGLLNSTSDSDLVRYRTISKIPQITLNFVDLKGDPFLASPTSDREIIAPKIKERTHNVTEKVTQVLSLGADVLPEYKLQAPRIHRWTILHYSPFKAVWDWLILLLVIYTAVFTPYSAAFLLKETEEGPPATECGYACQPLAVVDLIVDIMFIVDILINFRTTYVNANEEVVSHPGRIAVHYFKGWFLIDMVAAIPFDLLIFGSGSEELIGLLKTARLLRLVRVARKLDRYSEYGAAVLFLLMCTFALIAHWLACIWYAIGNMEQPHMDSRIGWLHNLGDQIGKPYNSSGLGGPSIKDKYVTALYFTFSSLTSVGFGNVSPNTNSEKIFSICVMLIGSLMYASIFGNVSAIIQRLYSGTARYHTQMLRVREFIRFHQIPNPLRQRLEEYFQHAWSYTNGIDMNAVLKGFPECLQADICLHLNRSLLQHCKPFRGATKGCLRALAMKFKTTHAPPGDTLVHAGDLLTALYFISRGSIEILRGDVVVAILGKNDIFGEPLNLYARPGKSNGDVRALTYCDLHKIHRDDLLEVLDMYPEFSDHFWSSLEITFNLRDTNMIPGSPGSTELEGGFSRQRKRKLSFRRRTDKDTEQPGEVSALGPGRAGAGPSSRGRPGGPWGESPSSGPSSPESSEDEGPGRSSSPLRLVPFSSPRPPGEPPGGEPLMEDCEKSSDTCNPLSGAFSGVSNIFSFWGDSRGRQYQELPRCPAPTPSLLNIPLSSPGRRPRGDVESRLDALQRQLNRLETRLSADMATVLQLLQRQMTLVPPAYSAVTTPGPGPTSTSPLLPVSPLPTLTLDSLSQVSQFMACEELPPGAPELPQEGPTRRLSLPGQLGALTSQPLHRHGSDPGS

SMILES | hERG current change (%, negative = inhibition) at 10uM [%]
CC1=C/C(=C/N(C)c2ccccc2)C(=O)S1 | -3.05
O=c1ncn(-c2ccccc2F)c2ncccc12 | -8.06
Cc1nc(NC(=O)CSc2nnc(C)n2CC2CCCO2)sc1C (stereo not drawn) | -0.562
Cc1oc2cc3oc(=O)c(CC(=O)O)c(C)c3cc2c1-c1ccccc1 | 14.3
COc1ccc(C(=O)O/N=C(\N)Cc2ccc(Cl)cc2Cl)cc1OC | -25.4
Cc1ccc(Cl)cc1NC(=O)N[C@@H](C)C(=O)O | 11.3
CN1CCN(NC(=O)c2cc(S(=O)(=O)Nc3ccc(Cl)cc3)ccc2Cl)CC1.Cl | 5.84
O=C(N/N=C/c1ccc(N2CCOCC2)cc1)c1ccc(NS(=O)(=O)c2cccs2)cc1 | 9.69
Br.O=C(CNc1ccc(F)cc1)c1ccccc1 | 17.1
Cn1ncc(N=Cc2ccccc2)c1C(=O)Nc1cccc(Cl)c1 | 11.8
COc1cc(C2OCC3C(c4cc(OC)c(OC)c(OC)c4)OCC23)cc(OC)c1OC (stereo not drawn) | 5.48
CCCNS(=O)(=O)c1ccc(OCC(=O)N2CCCC2)cc1 | 8.81
COc1cc(/C=N/NC(=O)c2ccc(NC(=O)C3CC3)cc2)ccc1OC(C)=O | 1.29
COc1cccc(/C=C2\SC(=O)N(CCC(=O)N3CCC(C(=O)O)CC3)C2=O)c1 | 6.76
Cc1cccc(NC(=S)NC(=O)c2ccc(Br)o2)c1 | 5.32
COc1ccc(C(=O)NCc2cc(C)nc3ccccc23)cc1OC | -8.56
O=C(Nc1nccs1)c1ccc(Cl)c(S(=O)(=O)N2CCCCC2)c1 | 5.94
CCOc1ccccc1OCCNC1CCCC1 | 8.26
COc1ccc(CCNS(=O)(=O)c2cccc([N+](=O)[O-])c2)cc1 | -17.5
CCCC(c1nnnn1C1CCCC1)N1CCN(c2ccccc2F)CC1.Cl (stereo not drawn) | -27.9
CSc1ccccc1OCc1cc(C(=O)NC2CCOC(C)(C)C2)no1 (stereo not drawn) | 5.07
CC(=O)Nc1cccc(OCCCOc2ccc([N+](=O)[O-])cc2)c1 | 15.2
Cc1ccccc1OCC(=O)NS(=O)(=O)c1ccc(Cl)cc1 | 14.8

SMILES | hERG current change (%, negative = inhibition) at 10uM [%]
CCN(CC)CC(=O)c1c[nH]c2ccc(OC)cc12 | -22.9
Cc1onc(-c2c(Cl)cccc2Cl)c1C(=O)Nc1ccc2c(c1)OCO2 | -23
COc1ccc(Cl)cc1-c1nc(SCC(=O)NC2CC2)n[nH]1 | -9.95
O=C(Nc1ccccc1Cl)C1CCN(S(=O)(=O)c2cccc3nonc23)CC1 | 16
CCc1c(C#N)c(SCCC(=O)Nc2ccc(C)cc2)nc2c1C(=O)CC(C)(C)C2 | 10.6
COc1ccc(NC(=S)N(CCCN2CCCC(C)C2)Cc2cccs2)cc1 (stereo not drawn) | -68.9
CCC1CCc2c(sc(NC(=O)C3c4ccccc4Oc4ccccc43)c2C(N)=O)C1 (stereo not drawn) | 2.02
O=C(CSc1nnc(-c2ccccc2)c(-c2ccccc2)n1)Nc1ncc(Cl)cc1Cl | -13.9
CC(C)CN(CCNC(=O)CN1C(=O)CSc2ccc(S(=O)(=O)N3CCOCC3)cc21)CC(C)C | -25
COc1cccc(-n2c(CNc3ccc(F)cc3)nnc2SCC(N)=O)c1 | -11.8
CC(OC(=O)c1cc(=O)[nH]c2ccccc12)C(=O)Nc1ccccc1F (stereo not drawn) | -1.86
CCOc1cc(CO)cc(Br)c1OCC(N)=O | 17.7
COc1ccccc1C(=O)Nc1ccc(S(=O)(=O)NC2=NCCCCC2)cc1 | 13.4
CC/C(O)=C1\C(=O)CC(c2ccccc2)CC1=NC(C)C (stereo not drawn) | -5.84
COc1ccc(NC(=O)Nc2nnc(CC(=O)NCc3ccccc3)s2)cc1 | 11.3
CCCC[C@@H]1CCCO[C@@](C(=O)NCc2ccc(C)o2)(C(F)(F)F)C1 | -6.8
COc1ccccc1CNc1ncnc2cc(OC)c(OC)cc12 | -32
Cc1ccc(NNS(=O)(=O)c2ccc(C)cc2)cc1 | 1.37
CCOc1ccccc1C(=O)Nc1ccc2nc3n(c(=O)c2c1)CCCCC3 | 1.73
O=C(NCc1ccc(F)cc1)c1cc2c(cc1Cl)N1CCCCCC1=NS2(=O)=O | -0.409
COc1ccc(Cl)cc1NC(=O)CN(C)C(=O)c1cccc(-n2cnnn2)c1 | -53.6
Cc1[nH]n(-c2ccc([N+](=O)[O-])cc2)c(=O)c1C=NCCN1CCN(C(=O)C(C)C)CC1 | -64.2
